Experimental findings from the RNAGym collection of RNA variant scans (doi:10.7554/elife.90254) are described below.

B1: LINE1-mini (parent)
chain: GGCAGAGCUCAACACAGCGUGGCAAAGUGGCUGUGGCUAGACUGCC

Read counts are not given, so values of variants with three or more changes are uncertain.

The variants in the series derive from B1. In words: self-cleavage, relative activity (ratio to wild type); higher = more cleavage; in vitro, sequencing; the parent is a self-cleaving ribozyme.
On to C10A C13G G17U C42G C46U, for which the self-cleavage is 0.06.
Then C10A A12C A26C A41C, with 0; and U9G C23A C42A C46A, with 0.27.
In the case of C10A A16G U32C, the self-cleavage stood at 0.05.
Turning to U9G G22U U32C G44A, the self-cleavage stood at 0.07.
The result for U9G C15U A24U A25G G30A C45U reads 0.02.
Take C10A A11G A25U G27C: the self-cleavage is 0.
Then C10A A16C A26U U32G, with 0.01; and U9G C23U U38A U43A, with 0.01.
Then U9G C13G G44A, with 0.01; and C10A A12U A24U, with 0.03; and C10A A12C C18U G22A, with 0.01.
The result for C10A A12G G21C G27C C31U U43C reads 0.01.
As to U9G G27A U43C, the self-cleavage turned out to be 0.07.
The result for C10A A12G C13U G19A G44U reads 0.02; that for U9G G27U U32G, 0.09; that for U9G G29A G33C, 0.03.
For C10A A12C G27U C42G, the self-cleavage is 0.01.
For C10A A14C C15G A16C, the self-cleavage amounted to 0.
Then C10A A12C C13U C37A, with 0.02; and C10A A12U C31A, with 0.03; and U9G C13U G29U U38A, with 0.02.
Then C10A A24C G35C A39G, with 0; and C10A A12G G17A, with 0.02; and U9G G35A G44U, with 0.04.
As for U9G G40C G44U, the self-cleavage was 0.02.
Then U9G U28G C37G, with 0.01.
Regarding C10A C13U G17C A41C, the self-cleavage was 0.02.
Then C10A A11U C15G G30C U43A, with 0.03; and U9G G17A A26C G35A, with 0.01; and C10A A16C G44C, with 0.04.
Then C10A A11C U28C G29C, with 0.01.
The result for C10A A25C G30U reads 1.04.
Consider C10A A26C U38C, for which the self-cleavage is 0.13.
The result for C10A A14C C23A G29U reads 0.04.
Then C10A C13U C18G G27C, with 0.01; and C10A A25C G27A, with 0.03; and U9G G21C C42A, with 0.09.
U9G U28G C37U U43C: the self-cleavage was found to be 0.04.
The result for U9G C13A G17U G27C G33A G35U A39U reads 0.04; that for U9G G27U G36A, 0.1; that for U9G G22U G35U, 0.03.
Then C10A A26U U28G C45U, with 0.01.
Then U9G G36U C42U, with 0.13; and C10A A11C G33U, with 0.02; and C10A A14G A25U C42G, with 0.01.
Take C10A A12G U20C C23G: the self-cleavage turned out to be 0.
The result for C10A A11U U20A reads 0.04.
Then C10A A14C A41G, with 0.
The result for U9G U20A C31U G44U reads 0; that for C10A C13A A39G, 0.03.
As to C10A A12G A14U C37A, the self-cleavage is 0.04.
Then U9G U34G C42U, with 0.03; and C10A A14G G21U A25C G35U, with 0.02; and U9G G21U G33A, with 0.04.
The result for C10A A16C U38A reads 0.08; that for C10A A41U C46G, 0; that for C10A A11G A16C A39U, 0.
For the variant U9G C10U G30A A41C, the self-cleavage was 0.
The result for U9G G27U A39G C45A C46A reads 0.08.
Then C10A A25C G29U G33U C45U, with 0.03.
Then C10A A16U G29C, with 0.01; and U9G G30U U34A, with 0.04.
For the variant C10A A26U G40U, the self-cleavage was 0.08.
In the case of C10A A39G G44C, the self-cleavage turned out to be 0.01.
Then C10A A14G G35U, with 0.01.
Then U9G C13G A25C A26U G27C C31A C37A G40A, with 0.02; and C10A A25G U28G U38C, with 0.12.
The result for U9G G29C G30C U43A reads 0.
As to U9G C15A A26U G35A, the self-cleavage is 0.1.
Then C10A C13U G21U C31U C37A, with 0.02; and U9G G21C C31U C46U, with 0.02; and C10A A11U G22U A24G G33U, with 0.02.
Turning to C10A A24C U28G G36U C37A, the self-cleavage amounted to 0.
In the case of U9G U20G G44U, the self-cleavage was found to be 0.04.
The result for U9G G27C G30U C31G reads 0.02.
The result for C10A A24G G33C reads 0.02; that for U9G U28C G29U G33A, 0.05; that for U9G G21C G22A C37U A41C C46U, 0.01.
The result for C10A A11G A39G reads 0.02.
For the variant C10A A26G G27C, the self-cleavage amounted to 0.13.
The result for C10A C13U A16C reads 0.01; that for C10A A11C A16C A24G C37G, 0; that for U9G C15U U20A G27U G33C, 0.14.
Then C10A A25U G27U U32G, with 0.03; and U9G C31G G36U, with 0.03.
The result for U9G G29U A41G reads 0.23; that for U9G G29C U38G C45G, 0.05; that for C10A A26C G27A, 0.01.
As to C10A A16C G30A C31U G40U, the self-cleavage amounted to 0.02.
Then C10A A12G C23U, with 0.02; and U9G C15U G19C U28A G36U U38G, with 0.01.
Then C10A C13A C23A G35U, with 0.01; and U9G C10U C23A G40C C46U, with 0; and C10A A16U G21U C37A, with 0.06.
Then U9G G22A C46A, with 0.11; and C10A C13U A24C C37U, with 0.01; and U9G G19U C23U, with 0.12.
As for U9G U28G G29C G30A, the self-cleavage was found to be 0.04.
Then C10A A24G G27U C31G U32G U43A, with 0.01.
Then C10A A14U A25C G27C, with 0.
Then U9G G19A U20G G29A U38G C42U, with 0.02.
Take C10A A14C U32G U38G A41C: the self-cleavage amounted to 0.01.
Then C10A A25G U28C C42G, with 0.01; and C10A A14G U32G U34A U38A, with 0.01.
As to C10A A26U C31U U38G A39G G44U, the self-cleavage was 0.02.
The result for U9G U34A G40A C42A reads 0.02; that for C10A A16G G19U C31A, 0.01; that for C10A C13G G21U G27A, 0.03.
Then U9G U20A G22A U28A, with 0.06.
Take U9G G19A G21C: the self-cleavage is 0.05.
Then U9G G21U A26G G36C, with 0.
Then U9G C15U G21A G22U G44C, with 0.05; and U9G C10U C13G U38G G44C, with 0.02; and C10A A12G C15A G22C, with 0.03.
For C10A A14G G19U U32A U38A C42U, the self-cleavage is 0.01.
The result for C10A A11C G19A A25C G29C reads 0.01.
Then U9G C31A C42U C45A, with 0.02.
Then C10A A16G A41C, with 0.
As to U9G C10U G22U G29A U38C, the self-cleavage amounted to 0.04.
The result for U9G C15A G17C G27A reads 0.01; that for U9G C15U U38G, 0.01; that for C10A A14U G29A, 0.02.
With C10A A11U G35U C42A, the self-cleavage is 0.
The result for U9G G21A U38A C46A reads 0.06; that for C10A C13G C15G G17U, 0.04.
On to C10A A12C A26C, for which the self-cleavage amounted to 0.03.
The result for C10A A14C C15U A16U U28C reads 0.04.
As for U9G G22U U34A G36A G40U, the self-cleavage was found to be 0.01.
As for C10A A12U G21U C23G G35A, the self-cleavage amounted to 0.01.
For U9G C18A G35U C45G, the self-cleavage was 0.03.
Then U9G G36U A39U G40U, with 0.15; and C10A A14C G21C U28C, with 0.01.
Turning to C10A A24C G33U, the self-cleavage was determined as 0.37.
Then U9G G19U A39G, with 0.05; and C10A A12C G17A C37A, with 0.02.
Then U9G C23U G33A C45U, with 0.02; and C10A A24G C31G, with 0.06; and U9G G17U G29C G35A C45U, with 0.05.
Then U9G C23A C45U, with 0.05.
For the variant U9G C31A C45A, the self-cleavage is 0.03.
Then C10A C13U A24C A26U G27U, with 0.01; and U9G U20C U28A C37U, with 0.02.
Then U9G U38G G40U, with 0.01.
The result for C10A C13A U32G U34C U38C reads 0; that for C10A A24U G35A C42A, 0.02; that for C10A A11C C18U C31A, 0.01.
U9G G19A G36C: the self-cleavage amounted to 0.04.
Consider U9G C13G G21U C23A G30A, for which the self-cleavage came to 0.68.
The result for C10A A14U U38C reads 0.03; that for U9G G21C A25C A26U G33U, 0.08.
C10A A39G A41U G44A: the self-cleavage is 0.08.
In the case of U9G G21U U34G, the self-cleavage came out at 0.01.
As for C10A A16C G17C C18A C37A, the self-cleavage was 0.01.
The result for C10A A11G G21C G27U A41C G44U reads 0.01; that for U9G C13G A24U G36A, 0.27.
Take C10A A12C A16G G19U A24C G27C: the self-cleavage stood at 0.
The result for C10A A16U A24C C31U G40C reads 0.04; that for C10A A12U C37U U38A, 0.02; that for C10A A14G C37A, 0.01.
The result for U9G C15U G40A reads 0.19.
Consider C10A A11U G35U G36C, for which the self-cleavage worked out at 0.04.
For the variant C10A A11U A14C U20A C23A A24G A26G C37A C42G, the self-cleavage worked out at 0.
The result for C10A A14C G35A G36U A41C reads 0; that for C10A A12G G36U, 0.01; that for U9G G33C G44U, 0.03.
Regarding C10A A14U G21A, the self-cleavage stood at 0.01.
